Data from PubChem BioAssay AID1159614 (National Center for Advancing Translational Sciences (NCATS), 2016).
In all, about 45,000 compounds went through this assay and about 65 (0.1%) were called active. Calls follow the shape of the dose curve; as a rule, active = well fitted activation curve with a large enough effect; inconclusive = small, poorly fitted or top-dose-only effect; inactive = no such curve, though single readings can be large or run the other way. The list shows a part of the results.

target: Galactocerebrosidase (Homo sapiens) (UniProt P54803); assay: A Novel Cell-Based Assay to Identify Small Molecules for B -Galactocerebrosidase; settings: 145M-Twi-hGALC-G270D cells (Twitcher mouse brain line with human GALC G270D), HMU-beta-Gal fluorescence, 48 h; series mostly up to 57.5 µM; activation: at the top concentration; also: 0% is about no effect; nearly all actives have a fitted effect of over 65% in size
In short: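 Live 145M-Twi cells (Twitcher mouse brain-derived, GALC-null) stably expressing human GALC-G270D, with a wild-type GALC line, were compound-treated. Residual GALC activity was then read as fluorescence from 0.1 mM final HMU-β-gal at pH 5.2; higher signal means activation.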

Chain of UniProt P54803 (P54803 whole entry, looked up): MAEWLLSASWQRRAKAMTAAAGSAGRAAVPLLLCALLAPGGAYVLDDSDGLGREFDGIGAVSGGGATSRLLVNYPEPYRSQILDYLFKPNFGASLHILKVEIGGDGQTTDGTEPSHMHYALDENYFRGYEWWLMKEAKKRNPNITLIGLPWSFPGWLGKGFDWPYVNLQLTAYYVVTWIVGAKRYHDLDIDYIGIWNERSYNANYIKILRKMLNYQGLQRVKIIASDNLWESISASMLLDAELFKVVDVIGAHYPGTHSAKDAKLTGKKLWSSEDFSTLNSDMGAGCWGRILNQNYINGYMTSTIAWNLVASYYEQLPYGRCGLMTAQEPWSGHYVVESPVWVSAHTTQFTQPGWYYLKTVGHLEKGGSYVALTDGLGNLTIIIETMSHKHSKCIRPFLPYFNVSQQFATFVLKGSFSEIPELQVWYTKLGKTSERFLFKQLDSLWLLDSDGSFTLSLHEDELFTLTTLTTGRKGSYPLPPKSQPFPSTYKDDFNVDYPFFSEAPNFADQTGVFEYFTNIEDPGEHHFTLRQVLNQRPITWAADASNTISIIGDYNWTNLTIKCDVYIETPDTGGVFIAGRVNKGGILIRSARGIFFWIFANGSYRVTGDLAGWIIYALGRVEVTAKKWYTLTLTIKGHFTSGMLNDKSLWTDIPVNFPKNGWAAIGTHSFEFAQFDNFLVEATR

activation, inactive:
CCOc1ccccc1CNC(=O)CN1C(=O)CCn2nc(-c3cn(C)c4ccccc34)cc21 -30.1%
COc1ccc(CNC(=O)c2ccc3c(c2)NC(=O)C(CS(=O)(=O)Cc2ccccc2Cl)N3)cc1 (centres undefined) -17%
Cc1nc2ccc(S(=O)(=O)N(CC(=O)Nc3ccc(Cl)cc3)Cc3ccccc3)cc2s1 -11.7%
COc1cc(Cl)c(C)cc1Nc1c2c(nc3ccccc13)CCC2 -16.3%
CCOc1ccc(C(=O)c2oc3ccccc3c2NC(=O)c2cc(-c3ccccc3)on2)cc1 -13.8%
Cc1ccc(NC(=O)C(Cc2ccccc2)n2cccc2)c(C)c1 (centres undefined) -20.3%
CSc1cccc(N2C(=O)N(CC(=O)NCc3ccccc3Cl)c3ccccc3S2(=O)=O)c1 0.28%
CCOc1ccccc1N(C)C(=O)Cn1cnc2onc(-c3ccc(F)cc3)c2c1=O -26.5%
COc1ccccc1-n1ncc2c(=O)[nH]c(SCC(=O)Nc3cccc(F)c3)nc21 -10.6%
COc1ccc2c(CNCc3cccs3)c(C(=O)O)n(Cc3ccc(F)cc3Cl)c2c1 -13.2%
CC(C)CCOc1ccc(Oc2nc(N(C)C)nc(N(C)C)n2)nn1 -7.16%
COc1cc(-c2noc(-c3ccc(NC4CCCCC4)c([N+](=O)[O-])c3)n2)cc(OC)c1OC -11.4%
Cc1ccc(NC(=O)CSc2nc(-c3cccs3)cc(C(F)(F)F)n2)cc1C -10.2%
Cc1cc(Nc2ccc(C(C)C)cc2)nc(-n2nc(C)cc2C)n1 -2.5%
COc1ccc(NC(=O)CN(C)S(=O)(=O)c2ccc3c(c2)CCCN3C(C)=O)cc1Cl -20.1%
CCCCCn1c(=N)c(S(=O)(=O)c2ccccc2)cc2c(=O)n3cccc(C)c3nc21 -12.4%
Cc1nnc(SCc2ccccc2Cl)c2cc3occc3n12 -3.63%
Cc1cccc2sc(N(Cc3cccnc3)C(=O)Cc3ccccc3)nc12 -48.3%
CC(C)Oc1cccc(C(=O)Nc2ccc(-c3nc4cc(Cl)cc(Cl)c4o3)cc2)c1 -7.22%
COc1ccc(NC(=O)Cn2c(=O)n(CC3CCCO3)c(=O)c3ccccc32)cc1 (centres undefined) -1.33%
CCCCCCNc1ncnc2c1sc1nc(N3CCOCC3)c3c(c12)CCCC3 -21%
CCCCSCCCNC(=O)c1cc(-c2cccnc2)nc2ccc(S(=O)(=O)N3CCC(C)CC3)cc12 6.3%
CCOC(=O)c1c(NC(=O)c2ccc(S(=O)(=O)N(C)C)cc2)sc2c1CCN(C)C2 -6.37%
O=C(Nc1ccc(Oc2ccccc2)cc1)C1CCN(S(=O)(=O)c2ccccc2)CC1 -17.8%
O=C(Nc1cccc(C(=O)N2CCN(c3ccc(F)cc3)CC2)c1)c1nsc2ccccc12 -21.3%
CCCN(C(=O)c1nn(-c2ccc(C)cc2)c(=O)c2c1c1ccccc1n2C)c1ccccc1C -6.4%
Cc1oc2ccc(O)c(CN3CCN(Cc4ccccc4)CC3)c2c1C(=O)Nc1cccc(Cl)c1C -5.74%
CC(=O)c1cc(-c2ccc(F)cc2)n(CCC(=O)NCc2ccc(C)cc2)c1C -9.99%
Cc1c(Cl)cccc1NC(=O)CN1C(=O)CSc2ccc(S(=O)(=O)N3CCCC3)cc21 -3.84%
COc1ccccc1/C=C/c1nc(C#N)c(NC(C)c2ccccc2)o1 (centres undefined) -13.4%
CC(=O)c1ccc(N2CCN(C(=O)Cn3ncc4c3-c3ccccc3OC4)CC2)cc1 -39.4%
CCOc1ccc(NC(=O)c2cnn3c(C(F)F)cc(-c4ccc(C)cc4)nc23)cc1 -11.5%
O=c1cc(COc2cccc(C(F)(F)F)c2)nc2sc3c(n12)CCCC3 -6.75%
Cc1ccc(-n2ncc(C(=O)N3CCN(C4CCCCC4)CC3)c2C2CCN(C(=O)OC(C)(C)C)CC2)cc1 -16.2%
CC(C)(C)C(=O)OCOC(=O)C1N2C(=O)CC2S(=O)(=O)C1(C)C (centres undefined) -8.46%
CCc1ccc(Sc2cc(C(=O)NCCCN3CCCC(C)C3)c3ccccc3n2)cc1 (centres undefined) -7.05%
Cc1ccccc1CCNCc1c(C(=O)O)c(C)n(Cc2c(F)cccc2Cl)c1C -11.5%
Cc1ccc(NC(=O)CN2CCN(C3CCCCC3)C(=O)C2=O)cc1 -8.48%
CC(=O)Nc1ccc2nc(SCc3ccccc3)sc2c1 -18.4%
CCOc1ccccc1CN(CCc1ccc2c(c1)OCO2)Cc1cc(OC)c(OC)cc1OC -19.2%
Clc1ccc(CN2CCc3nc(Nc4ccc5c(c4)OCCO5)ncc3C2)cc1 -18.4%
COc1ccccc1CNc1nc(-c2ccco2)nn1S(=O)(=O)c1ccc(C)cc1 -0.206%
COC(=O)c1cc(Cl)ccc1NC(=O)Cn1c(C)cc(C)c(C#N)c1=O -1.21%
CC(C)NC(=O)c1nn(C)c2c1CS(=O)(=O)c1ccccc1-2 -14.3%
COc1ccc(CNC(=O)C(=O)NCC(c2cccs2)S(=O)(=O)c2ccc(C)cc2)cc1 (centres undefined) -6.11%
O=C(c1ccc(F)cc1)N1c2ncnn2C2(CCCCC2)[C@@H]2CCCC[C@@H]21 -8.88%
Cc1ccc(-c2nsc(NC(=O)c3oc4cc(C)c(Cl)cc4c3C)n2)cc1 -14.5%
CCn1c(SCC(=O)Nc2cccc(Cl)c2)nnc1-c1nonc1NC(C)=O -10.9%
CCn1c(=O)c2sccc2n2c(CCCC(=O)N3CCN(c4ccccc4OC)CC3)nnc12 -9.26%
Cc1ccccc1C(=O)NCc1ccc2c(c1)CCN2C(=O)c1ccccc1 -19.6%
CCCCCCOc1ccccc1C(N)=O -14.1%
CCOC(=O)N1CCC(NC(=O)c2cnn(-c3cccc(C)c3)c2C2CCN(C(=O)OC(C)(C)C)CC2)CC1 -11.2%
Cc1ccc(-n2nc(CO)c(C(=O)NCCO)n2)cc1 -1.66%
COc1ccc(CCNC(=O)Cn2nnc(-c3cccc(C(F)(F)F)c3)n2)cc1OC -13.7%
CC(CNC(=O)c1ccc(Cn2c(SCc3ccccc3)nc3cccnc32)cc1)c1ccccc1 (centres undefined) -47.4%
Cc1cccc(NS(=O)(=O)c2nnc(NC(=O)C3CCCCC3)s2)c1 -20.8%
CCOC(=O)c1ccc(NC(=O)c2ccc3c(c2)CCN3S(=O)(=O)c2ccc(Cl)cc2)cc1 -9.15%
COc1ccc(CNC(=O)c2cc(Nc3ccc(OC)cc3OC)nc3ccccc23)cc1 -11.7%
COc1cc2[nH]c(=O)n(Cc3ccc(C(=O)N4CCN(c5cccc(C)c5C)CC4)cc3)c(=O)c2cc1OC -10.8%
CCOC(=O)c1ccc(N2C(=O)c3n[nH]c(C)c3C2c2ccc(C(C)C)cc2)cc1 (centres undefined) -11.6%
O=C(CSc1n[nH]c(-c2ccccc2Cl)n1)N1CCN(c2ccc(F)cc2)CC1 -13.6%
CC(C)c1nn2c(=O)cc(COC(=O)c3ccc(NC(=O)c4ccccc4Cl)cc3)nc2s1 -6.7%
O=C(Nc1ccc(O)c(-c2nc3ccccc3o2)c1)c1cccs1 -23.5%
COc1ccc2oc(=O)cc(CN3CCN(C(=O)c4ccccc4)CC3)c2c1 -14.8%
CCOc1ccc(NC(=O)c2oc3ccccc3c2NC(=O)Cc2ccc(OC)c(OC)c2)cc1 -1.42%
Cc1ccc(C)c(CN2C(=O)c3ccccc3Sc3ccc(C(=O)NCCCOC(C)C)cc32)c1 -8.88%
CCOc1ccc(CC(=O)NC2CC(=O)N(c3ccc4c(c3)OCCO4)C2)cc1 (centres undefined) -23.8%
NC[C@H]1O[C@H](O[C@H]2[C@H](O[C@@H]3O[C@H](CO)[C@@H](O)[C@H]3O)C(O)[C@H](N)C[C@@H]2N)[C@H](N)[C@@H](O)[C@@H]1O (some centres undefined) -12.7% [at 11.5 µM]
CCN(c1ccccc1)S(=O)(=O)c1nnc(NC(=O)COc2ccccc2F)s1 -16.9%
CC(=O)Nc1ccccc1-c1nc2ccccc2n(C(C)C(=O)c2ccc(C)c(C)c2)c1=O (centres undefined) -4.68%
Cc1cc(C)n(-c2nc3cc(Cl)c(Cl)cc3nc2Nc2c(C)cccc2C)n1 -9.33%
CC(=O)Nc1ccc(S(=O)(=O)Nc2ccc3c(c2)n(C)c(=O)n3C)c(C)c1 -14.8%
COc1ccc(CNC(=O)C(=O)NCC(c2cccnc2)N2CCN(c3ccccc3F)CC2)cc1 (centres undefined) -17.7%
Cc1ccc(NC(=O)CN(C)S(=O)(=O)c2cccc3nsnc23)c(C)c1 -16.4%
COc1ccc(-c2[nH]ncc2C(=O)NCc2ccccc2OC)cc1 -10.6%
Cc1ccc(Nc2cc(-c3ccccc3)nc(C)n2)cc1 -7.07%
CCOC(=O)c1c(NC(=O)c2cc3ccccc3c(=O)o2)sc2c1CCCC2 -1.44%
CCCN(CCC)CCNC(=O)c1cc(Sc2ccc(Cl)cc2)nc2ccccc12 -10.2%
COc1ccc(OC)c(NC(=O)CCc2c(C)nc3c(-c4ccccc4)c(C)nn3c2C)c1 -33.1%
CCc1cccc(NC(=O)c2ccc3c(=O)n4nc(Nc5ccccc5OC)sc4nc3c2)c1 -18.1%
CCSC1=NC2(CCN(C(=O)NC3CCCCC3)CC2)N=C1c1ccc(C)c(C)c1 -8.05%
Cc1ccc(NC(=O)[C@H](Cc2ccccc2)N2Cc3ccccc3C2=O)cc1 -8.11%
Cc1noc(C)c1S(=O)(=O)NCCc1csc2nc(-c3ccc(F)cc3)nn12 -7.69%
Cc1ccc(S(=O)(=O)c2cn(CC(=O)Nc3ccc4c(c3)OCO4)c3ccc(F)cc3c2=O)cc1 -9.03%
Cc1cccc(CSCCNC(=O)CN(c2ccccc2)S(=O)(=O)N(C)C)c1 -38.8%
Cc1cc2n(n1)CCCN2C(=O)Nc1cccc(C)c1C -8.03%
Cc1cccc(Nc2nc3ccccc3n3c(N)nnc23)c1 -12.1%
COc1cccc(N2CCN(c3ncc4c(n3)CCN(Cc3ccc(Br)cc3)C4)CC2)c1 -9.66%
Cc1ccc(Cn2c(=O)c3cccnc3n(Cc3ccc(F)cc3)c2=O)cc1 -12.9%
OC1(c2ccccc2)CCNCC1 -11.3%
Cc1ccc(C)c(NC(=O)Cn2c(=O)oc3cc(S(=O)(=O)NCc4ccccc4)ccc32)c1 -44.6%
Cc1cc2oc(C(=O)Nc3ccc(S(=O)(=O)Nc4onc(C)c4C)cc3)cc(=O)c2cc1C -5.99%
COc1ccc(Cl)cc1NC(=O)c1nc(S(C)(=O)=O)ncc1N(Cc1ccc(C)cc1)Cc1ccco1 -20%
CCOc1ccc(-n2c(SC(C)C(=O)OC)nc3c([nH]c4ccccc43)c2=O)cc1 (centres undefined) -6.52%
